Assay results reported in PubChem BioAssay AID1346378 (National Center for Advancing Translational Sciences (NCATS), 2018).
In all, about 420,000 compounds went through this assay and about 540 (0.13%) were called active. Inconclusive results, whose numbers are uncertain, are shown with a selection of clear calls. No stated cut-off is given here; in the data, active means activity change below about -50%; inconclusive means mostly about -30% to -49%; inactive means weaker than that.

Molecular target: Phosphatidylinositol 4-kinase type 2-alpha (Homo sapiens) (UniProt Q9BTU6)
Chain of UniProt Q9BTU6 (Q9BTU6 whole entry, looked up): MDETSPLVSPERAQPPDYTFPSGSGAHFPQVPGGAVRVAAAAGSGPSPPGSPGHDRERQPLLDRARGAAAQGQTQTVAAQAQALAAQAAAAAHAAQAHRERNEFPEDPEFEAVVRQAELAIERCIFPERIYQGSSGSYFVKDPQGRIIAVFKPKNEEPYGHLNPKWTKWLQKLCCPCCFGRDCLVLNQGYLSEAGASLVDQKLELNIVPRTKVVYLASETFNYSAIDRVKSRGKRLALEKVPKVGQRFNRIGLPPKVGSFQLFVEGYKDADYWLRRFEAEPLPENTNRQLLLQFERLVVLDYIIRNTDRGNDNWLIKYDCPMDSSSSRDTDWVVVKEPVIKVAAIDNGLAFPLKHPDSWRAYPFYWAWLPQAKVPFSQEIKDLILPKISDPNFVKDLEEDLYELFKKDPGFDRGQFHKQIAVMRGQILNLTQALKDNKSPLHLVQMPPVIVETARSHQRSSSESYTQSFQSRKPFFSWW
Assay: qHTS for small molecular inhibitors of PI4K2A;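 further: -100% = wells without enzyme as full effect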
Settings: purified PI4K2A, ADP-Glo luminescence, 1 h; at 76.9 µM, active compounds read low
In short: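 In this quantitative HTS, ADP production by PI4K2A was quantified luminescently after 1 h at ambient temperature; 100 microM adenosine served as plate-quality control.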

Activity change, negative = inhibition, inactive:
S=C(NCCSCc1c(Cl)cccc1Cl)Nc1ccccc1 2.73%
COc1ccc(-c2cc(NC=O)c3ncc(-c4ccc(OC)c(OC)c4)n3c2)cc1 -5.48%
O=C(N/N=C/c1cc(Br)c(Br)o1)c1cccnc1 -0.956%
Cc1cc(/N=C/C=C2\N(C)c3ccccc3C2(C)C)n(CCC#N)n1 0.555%
O=C1CC(c2ccc(O)c(O)c2)Oc2cc(O)cc(O)c21 (centres undefined) -3.93%
Cc1ccc(OCC(O)Cn2c(N)nc3c2c(=O)n(C)c(=O)n3C)cc1 (centres undefined) 4.3%
O=c1c2cc(N3CCOCC3)ccc2[nH]c(=S)n1CCCN1CCCC1 -3.56%
O=C(CNC(=O)/C=C/c1ccco1)N=Nc1c(O)[nH]c2ccccc12 -2.05%
COc1ccc(S(=O)(=O)N2c3ccccc3OCC2CC(=O)O)cc1 (centres undefined) -3.54%
COCCn1c(C)c(C)c(S(=O)(=O)c2ccccc2)c1N -13%
Cc1nc(S/C(=C/c2ccc(-c3cc(Cl)ccc3C)o2)C(=O)O)n[nH]1 5.49%
COc1cc(CNc2ccc(N3CCOCC3)cc2)ccc1OCC(=O)NC(C)(C)C -1.95%
O=C(Nc1ccc(S(=O)(=O)N2CCN(Cc3ccccc3)CC2)cc1)c1cnccn1 -0.421%
CCc1ccc(NCc2cc3cc4c(cc3n(CC(=O)Nc3cccc(OC)c3)c2=O)OCO4)cc1 -4.88%
C#CCNC(=O)C[C@H]1C[C@@]2(C(=O)OC)C(=C[C@H](COCc3ccccc3)O[C@@H]2C)N(Cc2cccc3ccccc23)C1=O 0.937%
CCOC(=O)C1=C(C)c2ccccc2N(C(=O)OC)C1(C)C(=O)OCC (centres undefined) -19%
Cc1cc(S(=O)(=O)Nc2cc3c(cc2NCc2ccccc2)n(C)c(=O)n3C)ccc1F -3.02%
CCC1=Nc2cc(C(=O)N3CCC(C)CC3)ccc2Sc2ccc(C)cc21 -2.31%
Clc1ccc(CSc2nnc(Cn3cnc4ccccc43)o2)cc1 0.322%
CN1c2cccc3cccc(c23)N(C)C1c1cccs1 -0.192%
COc1cc(/C=C/C(=O)O[C@H]2CC[C@]34C[C@]35CC[C@]3(C)[C@@H]([C@H](C)CCC=C(C)C)CC[C@@]3(C)[C@@H]5CC[C@H]4C2(C)C)ccc1O 2.14%

Activity change, negative = inhibition, inconclusive:
O=c1cc(-c2ccc(O)cc2)oc2ccc3ccccc3c12 -39.7%
Cn1c(SCC(=O)N/N=C/C=C\c2ccco2)nc2ccccc21 -48.6%
O=C(COC(=O)c1cc(S(=O)(=O)N2CCc3ccccc3C2)ccc1Cl)NCc1ccco1 -32.3%
CCOC(=O)C1=C(C)NC(=O)NC1c1c(C)nn(-c2ccccc2)c1Cl (centres undefined) -42.4%
Cc1nc(N/N=C/c2ccccn2)sc1C -40.5%
O=C(NN=c1c(=O)c2ccccc2c1=O)c1ccccc1 -39.7%
CCOC(=O)N1CCc2c(sc(NCc3cccc(F)c3)c2C(=O)Nc2ccc(OC)cc2)C1 -34.7%
Nc1nc(SCc2ccccn2)c2ncn(C3OC(CO)C(O)C3O)c2n1 (centres undefined) -33.2%
NC(=O)Cc1ccc(C(=O)CSc2nnc(-c3ccncc3)n2C2CC2)s1 -36.8%
Cc1c2cnn(CC(=O)Nc3c(F)c(F)cc(F)c3F)c(=O)c2c(C)n1Cc1ccccc1F -30.6%
CCOC(=O)c1c(N)sc(C(=O)Nc2ccc3c(c2)OCO3)c1C -41.3%
Cc1cc(C)c2c(=O)c(C#N)coc2c1 -42%
O=S(=O)(Nc1ccc(O)c2ncccc12)c1ccccc1F -30.8%
Cc1ccc(S(=O)(=O)Nc2cc(Cl)c(O)c3ncccc23)cc1 -36.7%
Cc1ccc(/C=N/Nc2ccc(C(=O)O)cc2)s1 -42.1%
COc1ccc(N2Cc3cccc(C(=O)Nc4ccc(F)cc4)c3C2=O)cc1 -36.6%
CCN(CC)c1nc(N)c2c(N)nc(OC)cc2c1C#N -34.5%
COc1ccc(-c2cc3ncc(C)n3c(Nc3ncccc3C(N)=O)n2)cc1OC -46.8%
COC(=O)CCC(=O)OC1(C)C(=O)C=C2C=C(C3CC3)N(C3CC3)C=C2C1=O (centres undefined) -30.1%
CCCCN1C=CC(=C2C(=O)c3ccccc3C2=O)C=C1 -44.7%
COC(=O)c1cccc(-c2ccc(C(c3c(C)[nH][nH]c3=O)c3c(C)[nH][nH]c3=O)o2)c1 -48.4%
COc1ccc(OC)c(CNC(=O)Nc2cn(CC(C)C)c(=O)c3ccccc23)c1 -36.8%
Cc1nn2c(nc1=O)SCC(c1ccccc1)=N2 -35.3%
CCCC(=O)Nc1c(C(=O)OCC)[nH]c2ccccc12 -33.7%
O=C(CSc1nc2ccccc2c(=O)[nH]1)Nc1nc(-c2ccc(Br)cc2)cs1 -37.1%
Cc1ccc(Nc2cc(C)nn2-c2nc(C)cc(=O)[nH]2)cc1 -32.9%
CN=C1S/C(=C\c2ccc(O)c(OC)c2)C(=O)N1C -32.9%
O=C(NC(=S)Nc1c(Cl)ccc2nsnc12)c1ccco1 -35.3%
O=C(NCCc1ccco1)c1nn(Cc2ccccc2)c(=O)c2ccccc12 -32%
Cc1nc(-c2coc3cc(O)c(C)cc3c2=O)cs1 -33.6%
ClC(Cl)(c1nnnn1-c1ccccc1)c1nnnn1-c1ccccc1 -39.5%
COc1ccc(OC)c(C(c2c(C)[nH][nH]c2=O)c2c(C)[nH][nH]c2=O)c1 -48.2%
CCN(C(=S)NC(=O)c1ccco1)c1cccc2ccccc12 -36.9%
O=C(Nc1cccc(S(=O)(=O)NC2=NCCC2)c1)c1cc(-c2ccco2)nc2ccccc12 -43.8%
Cc1ccc(-c2[nH]nc3c2C(c2ccoc2)C(C#N)=C(N)O3)cc1C (centres undefined) -30.7%
CCC(=O)Nc1nnc(S(=O)(=O)N2CCc3ccccc32)s1 -42.9%
CC1=NNC(=O)/C1=C\c1cn(-c2ccccc2)nc1-c1ccc(F)cc1 -30.7%
NC1=C(Br)C(=O)c2ncccc2C1=O -40.7%
COc1ccc(N2C(=O)CCC(C(=O)N(C)CCc3ccccn3)C2c2ccc(OC)c(OC)c2)cc1 (centres undefined) -30.6%
Cc1cccc(-c2nc3cc(NC(=O)C4CCCO4)ccc3o2)c1 (centres undefined) -32.4%
COC(=O)c1ccccc1-c1ccc(C(c2c(C)[nH][nH]c2=O)c2c(C)[nH][nH]c2=O)o1 -46.4%
CCOC(=O)N1CCN(C2=C(NS(=O)(=O)c3ccc(Br)cc3)C(=O)c3ccccc3C2=O)CC1 -42%
COc1ccc(S(=O)(=O)CC(=O)c2cc3cccc(C)c3oc2=O)cc1 -32.4%
Cc1occc1C(=O)Nc1cc(C(C)(C)C)on1 -31.7%
CCOc1cccc(=O)c2c(C)n(C)c(C)c12 -32.4%
CC(=O)c1c(CC(=O)O)[nH]n(-c2nc3ccccc3s2)c1=O -32.2%
Cc1nc2c(=O)[nH]c(=S)[nH]c2[nH]c1=O -49.7%
CN(C)c1ccc(NC(=S)c2ccccn2)cc1 -31.7%
CC1=NN(c2ccccc2)C(=O)C1N=Nc1ccc(N)cc1 (centres undefined) -39.6%
Oc1ccc(NC(=S)Nc2ccc(O)cc2)cc1 -33.9%
CCOc1cc(/C=C2\C(=O)N(c3ccc(C(N)=O)cc3)N=C2C)ccc1OC(=O)c1cccs1 -40.8%
NS(=O)(=O)c1ccc(N=Nc2ccc(O)c3ncccc23)cc1 -46.2%

Activity change, negative = inhibition, active:
Cc1ccc(NC(=O)NC2CCCCC2)cc1Cl -71%
CC(=O)c1ccc(NC(=O)c2ccc3nc(-c4ccco4)c(-c4ccco4)nc3c2)cc1 -56.2%
O=C1C=C(NCc2ccccc2)c2ccccc2C1=O -63.8%
O=C(O)c1cccc(C(=O)Cc2ccccc2)c1 -70.8%
O=C(COC(=O)c1cccnc1Cl)c1ccccc1 -70.7%
COc1cc(SC#N)ccc1N=Cc1c(C)[nH]n(-c2ccc(C)cc2C)c1=O -53.6%
O=c1c(O)c(-c2ccc(O)cc2O)oc2cc(O)cc(O)c12 -67%
O=C(N1CCOCC1)N1CCN(c2ccccc2F)CC1 -61.9%
COc1ccc(C(=O)O/N=C(\N)c2ccccc2)cc1 -66.6%
COc1cccc(C(=O)c2cc3ccc(O)cc3oc2=O)c1 -61.7%
CCN1CCN(CCCNC(=O)c2ccc3c(c2)sc2nc(-c4ccc(OC)cc4)cn23)CC1 -72.4%
Cc1cc(=O)n(-c2ccc(C(=O)O)cc2)[nH]1 -56.3%
CCCc1nc2c(=O)n(C)c(=O)nc-2n(C)n1 -61.3%
CC1=C(C)CS(=O)N(c2ccc(S(N)(=O)=O)cc2)C1 (centres undefined) -51.6%
COc1cccc2nc3cc(C)c(C)cc3nc12 -74.7%
CCCOc1ccc2cc(-c3ccccn3)c(=O)oc2c1 -61%
